Where “and” joins values, the source holds several entries; their conditions need not be identical. Identical values can stand only once. Whole data set: some 13,000 compounds, median “IFI” near 4, cut for the highest 2% near 17. Some of the results follow.
Test: GSK_TCMDC: Inhibition Frequency Index (IFI). The number of non-kinase HTS assays where a compound showed > 50 % inhibition, expressed as a percentage of the number of such assays in which the compound was tested (-0 is zero)
Assay type: functional

| SMILES | IFI |
| --- | --- |
| O=S(=O)(Nc1ccc(CCN2CCC(N3CCCCC3)CC2)cc1)c1ccccc1C(F)(F)F | 3.28% |
| COc1ccccc1C1CCN(C2CCC(NC(=O)c3cc4ccccc4[nH]3)CC2)CC1 (stereo unspecified) | 16.4% |
| C#CCOc1ccc2ccccc2c1CNCCCCCCNCc1c(OCC#C)ccc2ccccc12 | 14.1% |
| COc1ccc(C(=O)NC2CCN(c3ccnc4cc(Cl)ccc34)C2)cc1 (stereo unspecified) | 3.08% |
| COc1cccc(CC(=O)NC2CCN(c3ccnc4cc(Cl)ccc34)C2)c1 (stereo unspecified) | 1.54% |
| OC1CCCN(Cc2ccc(-c3ccc(-c4nc5ccccc5[nH]4)cc3)cc2)C1 (stereo unspecified) | 5.63% |
| COc1c(C2CCN(CCCCNC(=O)c3noc(-c4ccc(C#N)cc4)n3)CC2)ccc2c1CCCC2 | 5.5% |
| CC(C)CCN(Cc1cncn1Cc1cccc(C(F)(F)F)c1)C(=O)c1ccccc1C#N | 2.63% |
| Cc1nc(-c2nc(NCc3ccc4c(c3)OCO4)ncc2-c2ccsc2)sc1C | 6.67% |
| CC(=O)N(C)c1cccc(C(=O)Nc2cccc(-c3ccc(-c4nc5cc(C(F)(F)F)ccc5[nH]4)cc3)c2)c1 | 7.02% |
| CC(C)Cn1c(Sc2ccc(C#N)c([N+](=O)[O-])c2)nnc1-c1cccs1 | 2.8% |
| O=C(Nc1ccc(F)c(C(F)(F)F)c1)N[C@H]1CCN(CCCCCNC(=O)C2CC2c2ccc(Cl)c(Cl)c2)C1 (stereo partly specified) | 15.9% |
| CCc1cn(C)c2c(N3CCCC3=O)cc(C(=O)N[C@@H](Cc3ccccc3)[C@H](O)CNC3CCCCC3)cc12 | -0% |
| COc1ccc(CN2CCC(CN3CC4(OC3=O)c3ccccc3-c3ccccc34)C2)c(O)c1 (stereo unspecified) | 5.56% |
| COc1ccccc1-n1ccnc1SCC(=O)Nc1cc(C(F)(F)F)ccc1Cl | 5.26% |
| CC(=O)c1ccc(NC(=O)C2c3ccccc3C(=O)N(CC(C)C)C2c2cccs2)cc1 (stereo unspecified) | -0% |
| CCCN1CCN(CCCNc2c3ccccc3nc3ccccc23)CC1 | 2.96% |
| COc1cc(OC)cc(-c2nc3ccc(OCCN(C)C)c(C#N)c3[nH]2)c1 | 3.03% |
| COc1ccc(CC(=O)Nc2ccc(Nc3nc(C)cc(N(C)C)n3)cc2)cc1 | 3.92% |
| CC(=O)Nc1ccc(OCCCN(Cc2ccccc2OC(F)(F)F)c2ccc(C(F)(F)F)c(C#N)c2)c(Cl)c1 | 0% |
| CCCS(=O)(=O)c1nc(S(=O)(=O)c2ccc(Cl)cc2)c(N2CCCCC2)s1 | 6.52% |
| CO/C(=C\C=C\c1cc2cc(Cl)c(Cl)cc2[nH]1)C(=O)Nc1ccc(NCCN(C)C)nc1 | 9.92% |
| O=C(C=Cc1ccc(Cl)c(Cl)c1)NCCCCCN1CCCC(CCCNS(=O)(=O)c2cccc(C(F)(F)F)c2)C1 (stereo unspecified) | 12.9% |

| SMILES | IFI |
| --- | --- |
| COc1ccc(C(=O)N[C@@H](CC(C)C)C(=O)NC2CC[C@@H](C)N(C(=O)Nc3ccc(Cl)cc3)CC2=O)cc1OCCN1CCOCC1 (stereo partly specified) | 6.25% |
| C[C@H](NC(=O)c1c(OC2CN(C(c3ccccc3)c3ccccc3)C2)c(-c2ccccc2)nc2ccccc12)C1CCCCC1 | 1.52% |
| O=C(NCC1COc2ccccc2O1)c1cnc2c(c1)nc(-c1c[nH]c(-c3ccccc3)n1)n2CCSCc1c(F)cccc1Cl (stereo unspecified) | 1.5% |
| CCn1c(C(C)C)cc2c3c(N)nc(N)nc3ccc21 | 2.88% |
| CS(=O)(=O)c1cccc(-c2cnc3[nH]cc(-c4cccc(CCN)c4)c3c2)c1 | 8.74% |
| CC(C)(C)c1ccc(CNCC(C)(C)c2nc(-c3ccnc(N)n3)c(-c3ccc(Cl)c(O)c3)[nH]2)cc1 | 17.1% |
| COc1ccc2nccc([C@@H](O)CN3CCC(NCc4cc5ccccn5n4)CC3)c2c1 | 1.46% |
| COc1ccc2nccc([C@@H](O)CN3CCC(NC(=O)/C=C/c4c[nH]c5c(C)cccc45)CC3)c2c1 | 0.69% |
| CC[C@H](C)CNC(=O)c1ccc(-c2cccc(CN3CCC(N4CCCC4)CC3)c2)nc1 | -0% |
| CCN1CCN(CCCNc2c3ccccc3nc3ccccc23)CC1 | 3.03% |
| O=[N+]([O-])c1nc(Br)n(Cc2ccc(Cl)cc2)n1 | 5.26% |
| N=C(N)NN=CC(=O)Nc1cccc(C(F)(F)F)c1 | -0% |
| COc1ccc2nccc([C@@H](O)CN3CCC(NC(=O)c4cc5cccnc5[nH]4)CC3)c2c1 | 1.4% |
| CC(C)(C)[C@@H](Nc1ccc(C#N)c2ccccc12)C(=O)NC1(Cc2ccc(O)c(Br)c2)CCCC1 | 0% |
| O=C(Nc1cccc(Oc2ccccc2)c1)N[C@H]1CCN(Cc2ccc(OCCCN3CCCCC3)cc2)C1 | 9.22% |
| CC(C)CNCc1cccc(-c2ccc(CN(CCCN3CCN(C)CC3)C(=O)CCC3CCCC3)cc2)c1 | 7.48% |
| COc1ccc(NC(=O)/C=C/c2ccccc2Cl)cc1OCCN1CCC(O)(c2ccc(Cl)c(C(F)(F)F)c2)CC1 | 5.63% |
| COc1ccc(OCCCN2CCN(CC(c3ccc(F)cc3)N3CCN(C(C)C)CC3)CC2)c2ccccc12 (stereo unspecified) | 7.84% |
| Nc1c2ccccc2nc2ccc(-c3ccccc3)cc12 | 12.8% |
| N#Cc1ccc(Cn2ccc3c4c(N)nc(N)nc4ccc32)cc1 | 5% |
| CN(C)CCCOc1ccc(-c2csc(NC(=N)NCc3ccccc3)n2)cc1 | 8.45% |
| Cc1cc(=NN=Cc2ccccc2F)c2cc(F)ccc2[nH]1 | -0% |
| CCN(CC)c1ccc2nc(N)nc(N)c2c1 | 7.26% |

| SMILES | IFI |
| --- | --- |
| O=C(Nc1cccnc1)c1cc(-c2cc(Cl)ccc2O)n[nH]1 | 1.45% |
| COc1c(C(=O)NC2CCN(Cc3ccccc3)C2)cnc2ccccc12 (stereo unspecified) | 0.75% |
| CS(=O)(=O)Nc1ccc2[nH]cc(C3CCN(CCCCCNC(=O)/C=C/c4ccc(Cl)c(Cl)c4)CC3)c2c1 | 2.96% |
| Cc1cccn2c(=O)c3cc(C(=O)NCCc4ccccc4)c(=N)n(CCCOC(C)C)c3nc12 | 4.3% |
| CN(Cc1cccc(C#N)c1)C1CCN(c2cc(NC(=O)c3cccc(F)c3)ccn2)CC1 | -0% |
| CCc1ccc(CN2CCC(C(=O)Nc3ccc(-c4nc5ccccc5[nH]4)cc3)CC2)o1 | 4.55% |
| C=CCN1C(=O)CN(S(=O)(=O)c2ccc(-n3nc(C)cc3C)cc2)C1=S | 0.71% |
| COc1ccc(CN(C)CCCOc2ccc(NC(=O)c3cccc4c(=O)c5cccc(C)c5[nH]c34)cc2)cc1OC | 3.15% |
| COc1cc(Cc2cnc(N)nc2N)cc(OCCCC(=O)O)c1OC | 0% |
| CC(=O)Nc1ccc(CN2CCN(C(c3ccc(F)cc3)c3ccc(F)cc3)CC2)cc1 | -0% |
| O=C(NC1CCN(Cc2ccccc2)CC1)c1csc2nc(-c3ccc(Cl)cc3)cn12 | 4.85% |
| CC(C)N1CCC(NC(=O)N2CCCN(c3ncnc4cc(-c5ccccc5)sc34)CC2)CC1 | 1.96% |
| CCCCOc1cc(C)nc2ccc(NC(=O)COCC(=O)Nc3ccc4nc(C)cc(OCCCC)c4c3)cc12 | 5.84% |
| COc1ccc(C(C(=O)NC2CCN(C[C@H](O)c3ccnc4ccc(OC)cc34)CC2)N2CCN(c3ccc([N+](=O)[O-])cc3)CC2)cc1 (stereo partly specified) | 0.69% |
| COc1ccc(NC(=O)Nc2cc(C)nc3ccccc23)cc1Cl | 5.56% |
| CCCOc1cc(OCCC)cc(-c2ccc(C(=O)Nc3ccc4ccc(C)nc4c3)c(=O)[nH]2)c1 | 0% |
| CCCCN1C(=O)C2CC(=O)CC(C3CCCCC3)C2C1=O (stereo unspecified) | 0% |
| Cc1ccc(C(=O)Nc2ccc(C)c(OC3CCN(CCC(C)C)C3)c2)cc1 (stereo unspecified) | 1.64% |
| O=C(Nc1cccc([N+](=O)[O-])c1)Nc1cccc(C(F)(F)F)c1 | 12.4% |
| OC(CNc1ccnc(Nc2cccc(OCCCN3CCOCC3)c2)n1)c1ccccc1 (stereo unspecified) | 10.2% |
| COc1ccc2ncc(F)c(CCN3CCC(NCc4cc(Br)c5c(c4)OCCO5)CC3)c2n1 | 8.49% |
| COc1ccc2nc(-c3cccc(C)n3)nc(Nc3ccncc3)c2c1 | 1.53% |
| Nc1ccc2c(N)c3ccccc3nc2c1 | 2.96% |

| SMILES | IFI |
| --- | --- |
| Cc1ccc2nc(-c3ccc(C(=O)NC4CCN(Cc5ccccc5)CC4)s3)[nH]c2c1 | 2.29% |
| CC1CCCC(NCc2c(O)ccc3ccccc23)C1 (stereo unspecified) | 1.52% |
| COc1ccc(Cc2cnc3nc(N)nc(N)c3c2C)cc1 | 2.9% |
| COc1ccc2ncc(F)c(C(O)CN3CCC(NCc4ccc5c(n4)NC(=O)CO5)CC3)c2c1 (stereo unspecified) | 0.88% and 2.65% |
| Cc1cc(N2CCCC2)nc(Nc2ccc(NC(=O)Cc3ccccc3)cc2)n1 | 15.4% |
| COC(=O)C(C)(C)Cc1c(SC(C)(C)C)c2cc(C(C)C)ccc2n1Cc1ccc(Cl)cc1 | -0% |
| Cc1nc(-c2cccc(Nc3ccnc4cc(-c5nccs5)ccc34)c2)no1 | 10.7% |
| CS(=O)(=O)c1ccc(CNCc2ccc(-c3cccc(-c4nc5cc(F)ccc5[nH]4)c3)cc2)cc1 | 6.6% |
| c1ccc2c(CNCCCCCCNCc3c(OCC4CC4)ccc4ccccc34)c(OCC3CC3)ccc2c1 | 18.7% |
| CCOC(=O)c1c(C)n(-c2ccccc2)c2ccc(OC(=O)c3ccc(S(=O)(=O)N(CC)CC)cc3)cc12 | 2.94% |
| O=C(NCCCCCN1CCC(c2c[nH]c3ccccc23)CC1)Nc1cccc(Br)c1 | 4.23% |
| O=c1ccc(CNc2nc(NCCc3ccccc3)nc3ccc(Cl)cc23)c[nH]1 | 0% |
| CC[C@H](C)CNC(=O)c1ccnc(-c2ccc(CNCCCc3ccccc3)cc2)c1 | 8.06% |
| Fc1ccc2c(NN=Cc3ccccc3F)ccnc2c1 | 2.17% |
| O=c1c2ccc(F)cc2sn1-c1ccc(Cl)cc1 | 23.9% |
| COc1ccccc1C1CCN(C2CCC(NC(=O)/C=C/c3ccc(OC(F)(F)F)cc3)CC2)CC1 (stereo unspecified) | 11.7% |
| CN(Cc1ccc(-c2ccc(C(F)(F)F)cc2)cc1)C(=O)Cn1c(CCc2cccc(F)c2F)nc(=O)c2ccc(N3CCN(CCN4CCCCC4)CC3)nc21 | 15.8% |
| COc1ccc2nccc([C@@H](O)CN3CCC(NC(=O)c4ccc(Cl)c(OC)c4)CC3)c2c1 | 1.48% |
| N#Cc1ccc2c(c1)CN(C1CCC(NC(=O)c3cc(-c4ccc(Cl)cc4)cs3)CC1)CCC2 (stereo unspecified) | 8.2% |
| COC(=O)Cc1ccc(N)c2ccccc12 | 3.82% |
| COc1ccccc1CCNc1ncnc2c1[nH]c1ccc(F)cc12 | 20.5% |
| O=C1OC(c2ccccc2)(c2ccccc2)CN1C1CCN(Cc2ccc(O)c(Cl)c2)C1 (stereo unspecified) | 9.7% |
